Source: article PMC4891693, “Discovery of prenylated flavonoids with dual activity against influenza virus and Streptococcus pneumoniae” (Scientific Reports, 2016)

System: NA of influenza virus A/Jena/5258/2009 (5258/09)

| SMILES | MIC in HA assay against IAV 5258/09 [µM] |
| --- | --- |
| CC(C)=CCc1c(O)cc(CCc2ccccc2)c(CC=C(C)C)c1O [Compound 33, 2,4-bis(3-methyl-2-buten-1-yl)-5-(2-phenylethyl)-1,3-benzenediol] | 31.6 ± 0.00 (≈ 11.1 µg/mL) |
| CC(C)=CCc1cc(C2CC(=O)c3ccc(O)cc3O2)ccc1O (racemic) [Compound 18, (±)-abyssinone II] | 100 ± 0.00 (≈ 32.4 µg/mL) |
| COc1cc(C2CC(=O)c3c(O)cc(O)cc3O2)cc(CC=C(C)C)c1O (centres unmarked) [Compound 21, 2,3-dihydro-5,7-dihydroxy-2-[4-hydroxy-3-methoxy-5-(3-methyl-2-butenyl)phenyl]-4H-1-benzopyran-4-one] | 86.3 ± 30.6 (≈ 32 µg/mL) |
| O=C1CC(c2ccc(O)c(O)c2)Oc2cc(O)cc(O)c21 (racemic) [Compound 11, (±)-eriodictyol] | 77.2 ± 35.3 (≈ 22.3 µg/mL) |
| CC(C)=CCc1c(O)cc(O)c2c1O[C@@H](c1ccc(O)cc1)[C@H](O)C2=O (relative stereo) [Compound 23, (2R,3R)-rel-4H-2,3-dihydro-3,5,7-trihydroxy-2-(4-hydroxyphenyl)-8-(3-methyl-2-buten-1-yl)-1-benzopyran-4-one] | 100 ± 0.00 (≈ 35.6 µg/mL) |
| CC(C)=CCC/C(C)=C/Cc1c(O)cc(O)c2c1OC(c1ccccc1)CC2=O (racemic) [Compound 24, (R,S)-8-geranyl-5,7-dihydroxyflavanone] | 20.8 ± 10.8 (≈ 8.16 µg/mL) |
| COc1cc(C2CC(=O)c3c(cc(O)c(CC=C(C)C)c3O)O2)ccc1O (centres unmarked) [Compound 22, 2,3-dihydro-5,7-dihydroxy-2-(4-hydroxy-3-methoxyphenyl)-6-(3-methyl-2-buten-1-yl)-4H-1-benzopyran-4-one] | 100 ± 0.00 (≈ 37 µg/mL) |
| CC(C)=CCC/C(C)=C/Cc1c(O)ccc([C@@H]2CC(=O)c3c(O)cc(O)cc3O2)c1O [Compound 5, sanggenol A] | 31.6 ± 0.00 (≈ 13.4 µg/mL) |
| CCC(CC)O[C@@H]1C=C(C(=O)O)C[C@H](N)[C@H]1NC(C)=O [Oseltamivir carboxylate GS4071, reference compound] | 0.002 ± 0.001 (≈ 0.000569 µg/mL) |
| O=c1c(O)c(-c2ccc(O)cc2O)oc2cc(O)cc(O)c12 [Compound 16, morin] | 70.7 ± 36.6 (≈ 21.4 µg/mL) |
| CC(C)=CCc1c(O)c(CC=C(C)C)c2c(c1O)C(=O)C[C@@H](c1ccc(O)cc1)O2 [Compound 28, 6,8-diprenylnaringenin] | 54.4 ± 35.3 (≈ 22.2 µg/mL) |

In brackets after ≈: the same amount, converted by molar mass.
